Test results as given in PubChem BioAssay AID463173 (ICCB-Longwood Screening Facility, Harvard Medical School, 2010).
About 4,300 (8.3%) of roughly 52,000 compounds were called active. Rule as the data show it: active = survival mostly below about 52% (no sharp cut-off); inactive = mostly above about 56%. This is one part of the list.

test system: DeltatarO mutant; assay: S. aureus survival, RN4220 and DeltatarO strains – OD600, teichoic acid synthesis inhibitors, primary screen (AID 463173); conditions: S. aureus RN4220 wild type/DeltatarO growth, OD600, 18 h, stronger effect = lower value, screened at 18.75 µg/mL (by protocol)

Structure (SMILES)	survival
O=C(Nc1ccc(-c2nc3ccccc3s2)c(O)c1)c1ccc(Br)cc1	inactive: 87%
CCOC(=O)c1c(C)[nH]c(C)c1S(=O)(=O)N1CCC(C(=O)NCc2cccc(C)c2)CC1	inactive: 87%
CC1CCc2c(sc3nc(C(C)C)n4c(SCC(=O)NCc5ccco5)nnc4c23)C1 (centres undefined)	inactive: 103%
Cc1nn(S(=O)(=O)c2ccc(F)cc2)c(C)c1S(=O)(=O)N1CCCCC1	inactive: 72%
CC(C)NC(=O)C1CCCN(S(=O)(=O)c2ccc(-n3cnnn3)cc2)C1 (centres undefined)	inactive: 76%
Cc1c(C(=O)Nc2cccc(C(F)(F)F)c2)oc2ccc(S(=O)(=O)N3CCC4(CC3)OCCO4)cc12	inactive: 67%
CC(C)(C)C(=O)Nc1nnc2n1CCS2	inactive: 85%
COc1ccc(NC(=O)CSc2c3c(nc4ccccc24)CCC3)cc1Cl	inactive: 134%
CCOc1ccccc1N(C)C(=O)c1cc(S(=O)(=O)NCCc2ccc(Cl)cc2)ccc1F	inactive: 85%
Cc1ccccc1CNC(=O)CCc1cn(Cc2ccccc2C)c2ccccc12	inactive: 58%
CCN(CC)S(=O)(=O)c1ccc(NC(=O)c2ccc3c(=O)n4c(nc3c2)CCCCC4)cc1	inactive: 72%
CCOc1ccc(NC(=O)c2ccc3c(c2)nnn3C2CCCC2)cc1	inactive: 122%
COc1ccc(N2CCN(C(=O)c3cnc(SC)nc3C)CC2)cc1	inactive: 75%
COc1ccc(-c2cc3c(=O)n(CC(=O)Nc4ccc(Br)c(C)c4)ccn3n2)cc1OC	inactive: 83%
O=C(CSCc1ccc(F)cc1)N1CCc2c([nH]c3ccccc23)C1c1ccc(F)cc1 (centres undefined)	inactive: 75%
CCCc1c(C)c2ccccc2[nH]c1=O	inactive: 79%
Cc1cc(S(=O)(=O)Nc2cc3c(cc2NCc2ccccc2)n(C)c(=O)n3C)ccc1F	inactive: 61%
C=CCc1ccccc1OCC(CN1CCCCC1)OC(C)=O (centres undefined)	inactive: 105%
CCOC(=O)C1=C(CS(=O)(=O)c2ccc(C(C)(C)C)cc2)NC(=O)NC1c1cccc(OC)c1 (centres undefined)	inactive: 46%
Cc1cc(C)c(S(=O)(=O)NCCc2cc3cc(C)c(C)cc3[nH]c2=O)c(C)c1	inactive: 63%
O=S(=O)(NCCc1nnc2ccc(SCc3ccc(C(F)(F)F)cc3)nn12)c1ccccc1	inactive: 67%
Cc1oc2ccc(O)c(CN3CCN(Cc4ccccc4)CC3)c2c1C(=O)Nc1ccccc1	inactive: 68%
CN(C)c1ccc(CNC(=O)CN2C(=O)c3cccnc3Oc3ccc(Cl)cc32)cc1	inactive: 89%
Cc1nn(CC(=O)NCc2cccc(Br)c2)c(=O)c2c1sc1ccccc12	inactive: 100%
